{"source": "the supplement of paper PMC8728848", "assay_in_all_cases": "glycan array binding signal (z-score within array); higher = stronger binding", "conditions_in_all_cases": "glycan notation: IUPAC condensed, linker removed", "key": {"[1]": {"target": "Fuc(a1-2)[GalNAc(a1-3)]Gal(b1-3)GlcNAc(b1-2)Man(a1-3)[Fuc(a1-2)[GalNAc(a1-3)]Gal(b1-3)GlcNAc(b1-2)Man(a1-6)]Man(b1-4)GlcNAc(b1-4)[Fuc(a1-6)]GlcNAc", "how_it_was_run": "(§1)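 Negative Z-scores can be read as non-binding. The Z-score is calculated within each array and then averaged across arrays of one protein sequence at different concentrations or buffers and across linkers. Arrays, 3228 in all, were curated from the Consortium for Functional Glycomics database and kept only where the protein sequence was available.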"}, "[2]": {"target": "Fuc(a1-2)[GalNAc(a1-3)]Gal(b1-3)GlcNAc(b1-3)GalNAc", "how_it_was_run": "as §1"}, "[3]": {"target": "Fuc(a1-2)[GalNAc(a1-3)]Gal(b1-3)GlcNAc(b1-6)GalNAc", "how_it_was_run": "as §1"}, "[4]": {"target": "Fuc(a1-2)[GalNAc(a1-3)]Gal(b1-4)Glc", "how_it_was_run": "as §1"}, "[5]": {"target": "Fuc(a1-2)[GalNAc(a1-3)]Gal(b1-4)GlcNAc", "how_it_was_run": "as §1"}, "[6]": {"target": "Fuc(a1-2)[GalNAc(a1-3)]Gal(b1-4)GlcNAc(b1-2)Man", "how_it_was_run": "as §1"}, "[7]": {"target": "Fuc(a1-2)[GalNAc(a1-3)]Gal(b1-4)GlcNAc(b1-2)Man(a1-3)[Fuc(a1-2)[GalNAc(a1-3)]Gal(b1-4)GlcNAc(b1-2)Man(a1-6)]Man(b1-4)GlcNAc(b1-4)GlcNAc", "how_it_was_run": "as §1"}, "[8]": {"target": "Fuc(a1-2)[GalNAc(a1-3)]Gal(b1-4)GlcNAc(b1-2)Man(a1-3)[Fuc(a1-2)[GalNAc(a1-3)]Gal(b1-4)GlcNAc(b1-2)Man(a1-6)]Man(b1-4)GlcNAc(b1-4)[Fuc(a1-6)]GlcNAc", "how_it_was_run": "as §1"}, "[9]": {"target": "Fuc(a1-2)[GalNAc(a1-3)]Gal(b1-4)GlcNAc(b1-3)Gal(b1-4)GlcNAc", "how_it_was_run": "as §1"}, "[10]": {"target": "Fuc(a1-2)[GalNAc(a1-3)]Gal(b1-4)GlcNAc(b1-3)Gal(b1-4)GlcNAc(b1-3)Gal(b1-4)GlcNAc", "how_it_was_run": "as §1"}, "[11]": {"target": "Fuc(a1-2)[GalNAc(a1-3)]Gal(b1-4)GlcNAc(b1-3)GalNAc", "how_it_was_run": "as §1"}, "[12]": {"target": "Fuc(a1-2)[GalNAc(a1-3)]Gal(b1-4)GlcNAc(b1-3)[Fuc(a1-2)[GalNAc(a1-3)]Gal(b1-4)GlcNAc(b1-6)]GalNAc", "how_it_was_run": "as §1"}, "[13]": {"target": "Fuc(a1-2)[GalNAc(a1-3)]Gal(b1-4)GlcNAc(b1-6)GalNAc", "how_it_was_run": "as §1"}, "[14]": {"target": "Fuc(a1-2)[GalNAc(a1-3)]Gal(b1-4)[Fuc(a1-3)]GlcNAc", "how_it_was_run": "as §1"}, "[15]": {"target": "Fuc(a1-2)[GalNAc(a1-3)]Gal(b1-4)[Fuc(a1-3)]GlcNAc(b1-3)GalNAc", "how_it_was_run": "as §1"}, "[16]": {"target": "Fuc(a1-2)[GalNAc(a1-4)]Gal(b1-4)GlcNAc", "how_it_was_run": "as §1"}, "[17]": {"target": "Fuc(a1-2)[GalNAc(b1-3)]Gal", "how_it_was_run": "as §1"}, "Fuc(a1-3)GlcNAc": {"target": "Fuc(a1-3)GlcNAc", "how_it_was_run": "as §1"}, "[18]": {"target": "Fuc(a1-3)[Gal(b1-4)]Glc6S", "how_it_was_run": "as §1"}, "[19]": {"target": "Fuc(a1-3)[Gal(b1-4)]GlcNAc", "how_it_was_run": "as §1"}, "[20]": {"target": "Fuc(a1-3)[Gal(b1-4)]GlcNAc(b1-2)Man", "how_it_was_run": "as §1"}, "[21]": {"target": "Fuc(a1-3)[Gal(b1-4)]GlcNAc(b1-2)Man(a1-3)[Fuc(a1-3)[Gal(b1-4)]GlcNAc(b1-2)Man(a1-6)]Man(b1-4)GlcNAc(b1-4)GlcNAc", "how_it_was_run": "as §1"}, "[22]": {"target": "Fuc(a1-3)[Gal(b1-4)]GlcNAc(b1-2)Man(a1-3)[Fuc(a1-3)[Gal(b1-4)]GlcNAc(b1-2)Man(a1-6)]Man(b1-4)GlcNAc(b1-4)[Fuc(a1-6)]GlcNAc", "how_it_was_run": "as §1"}, "[23]": {"target": "Fuc(a1-3)[Gal(b1-4)]GlcNAc(b1-2)Man(a1-6)[Gal(b1-4)GlcNAc(b1-2)Man(a1-3)]Man(b1-4)GlcNAc(b1-4)GlcNAc", "how_it_was_run": "as §1"}, "[24]": {"target": "Fuc(a1-3)[Gal(b1-4)]GlcNAc(b1-3)Gal(b1-3)[Fuc(a1-4)]GlcNAc", "how_it_was_run": "as §1"}, "[25]": {"target": "Fuc(a1-3)[Gal(b1-4)]GlcNAc(b1-3)GalNAc", "how_it_was_run": "as §1"}, "[26]": {"target": "Fuc(a1-3)[Gal(b1-4)]GlcNAc(b1-4)Gal(b1-4)[Fuc(a1-3)]GlcNAc", "how_it_was_run": "as §1"}, "[27]": {"target": "Fuc(a1-3)[Gal(b1-4)]GlcNAc(b1-4)Gal(b1-4)[Fuc(a1-3)]GlcNAc(b1-4)Gal(b1-4)[Fuc(a1-3)]GlcNAc", "how_it_was_run": "as §1"}, "[28]": {"target": "Fuc(a1-3)[Gal(b1-4)]GlcNAc(b1-6)GalNAc", "how_it_was_run": "as §1"}, "[29]": {"target": "Fuc(a1-3)[Gal(b1-4)]GlcNAc(b1-6)[Gal(b1-3)GlcNAc(b1-3)]Gal(b1-4)Glc", "how_it_was_run": "as §1"}, "[30]": {"target": "Fuc(a1-3)[Gal(b1-4)]GlcNAc6S", "how_it_was_run": "as §1"}, "[31]": {"target": "Fuc(a1-3)[Gal3S(b1-4)]Glc", "how_it_was_run": "as §1"}, "[32]": {"target": "Fuc(a1-3)[Gal3S(b1-4)]Glc6S", "how_it_was_run": "as §1"}, "[33]": {"target": "Fuc(a1-3)[Gal3S(b1-4)]GlcNAc", "how_it_was_run": "as §1"}, "[34]": {"target": "Fuc(a1-3)[Gal3S(b1-4)]GlcNAc6S", "how_it_was_run": "as §1"}, "[35]": {"target": "Fuc(a1-3)[GalNAc(b1-4)]GlcNAc", "how_it_was_run": "as §1"}, "[36]": {"target": "Fuc(a1-3)[GalNAc(b1-4)]GlcNAc6S", "how_it_was_run": "as §1"}}, "note": "The list shows a part of the results.", "data": [{"binder": "Gal 8 (Homo sapiens) (protein) MLSLNNLQNIIYNPVIPYVGTIPDQLDPGTLIVICGHVPSDADRFQVDLQNGSSVKPRADVAFHFNPRFKRAGCIVCNTLINEKWGREEITYDTPFKREKSFEIVIMVLKDKFQVAVNGKHTLLYGHRIGPEKIDTLGIYGKVNIHSIGFSFSSDLQSTQASSLELTEISRENVPKSGTPQLQTVSPSWDLQGHGSETFCSVLWTRVFLEIAFCRPIGLTVASFQSLPFAARLNTPMGPGRTVVVKGEVNANAKSFNVDLLAGKSKDIALHLNPRLNIKAFVRNSFLQESWGEEERNITSFPFSPGMYFEMIIYCDVREFKVAVNGVHSLEYKHRFKELSSIDTLEINGDIHLLEVRSW", "values": [{"measurement": "glycan array binding signal (z-score)", "setting": "[1]", "value": 0.935}, {"measurement": "glycan array binding signal (z-score)", "setting": "[2]", "value": -0.191}, {"measurement": "glycan array binding signal (z-score)", "setting": "[3]", "value": 1.11}, {"measurement": "glycan array binding signal (z-score)", "setting": "[4]", "value": 1.42}, {"measurement": "glycan array binding signal (z-score)", "setting": "[5]", "value": 1.5}, {"measurement": "glycan array binding signal (z-score)", "setting": "[6]", "value": 2.74}, {"measurement": "glycan array binding signal (z-score)", "setting": "[7]", "value": 5.81}, {"measurement": "glycan array binding signal (z-score)", "setting": "[8]", "value": 1.71}, {"measurement": "glycan array binding signal (z-score)", "setting": "[9]", "value": 2.08}, {"measurement": "glycan array binding signal (z-score)", "setting": "[10]", "value": 2.05}, {"measurement": "glycan array binding signal (z-score)", "setting": "[11]", "value": 0.063}, {"measurement": "glycan array binding signal (z-score)", "setting": "[12]", "value": 1.21}, {"measurement": "glycan array binding signal (z-score)", "setting": "[13]", "value": 0.331}, {"measurement": "glycan array binding signal (z-score)", "setting": "[14]", "value": -0.391}, {"measurement": "glycan array binding signal (z-score)", "setting": "[15]", "value": -0.355}, {"measurement": "glycan array binding signal (z-score)", "setting": "[16]", "value": -0.357}, {"measurement": "glycan array binding signal (z-score)", "setting": "[17]", "value": -0.279}, {"measurement": "glycan array binding signal (z-score)", "setting": "Fuc(a1-3)GlcNAc", "value": -0.353}, {"measurement": "glycan array binding signal (z-score)", "setting": "[18]", "value": -0.345}, {"measurement": "glycan array binding signal (z-score)", "setting": "[19]", "value": -0.398}, {"measurement": "glycan array binding signal (z-score)", "setting": "[20]", "value": -0.355}, {"measurement": "glycan array binding signal (z-score)", "setting": "[21]", "value": -0.366}, {"measurement": "glycan array binding signal (z-score)", "setting": "[22]", "value": -0.355}, {"measurement": "glycan array binding signal (z-score)", "setting": "[23]", "value": -0.374}, {"measurement": "glycan array binding signal (z-score)", "setting": "[24]", "value": -0.362}, {"measurement": "glycan array binding signal (z-score)", "setting": "[25]", "value": -0.358}, {"measurement": "glycan array binding signal (z-score)", "setting": "[26]", "value": -0.37}, {"measurement": "glycan array binding signal (z-score)", "setting": "[27]", "value": -0.35}, {"measurement": "glycan array binding signal (z-score)", "setting": "[28]", "value": -0.356}, {"measurement": "glycan array binding signal (z-score)", "setting": "[29]", "value": -0.349}, {"measurement": "glycan array binding signal (z-score)", "setting": "[30]", "value": -0.357}, {"measurement": "glycan array binding signal (z-score)", "setting": "[31]", "value": -0.356}, {"measurement": "glycan array binding signal (z-score)", "setting": "[32]", "value": -0.21}, {"measurement": "glycan array binding signal (z-score)", "setting": "[33]", "value": -0.373}, {"measurement": "glycan array binding signal (z-score)", "setting": "[34]", "value": -0.21}, {"measurement": "glycan array binding signal (z-score)", "setting": "[35]", "value": -0.395}, {"measurement": "glycan array binding signal (z-score)", "setting": "[36]", "value": -0.358}]}]}
